{
  "source": "the supplement of paper PMC8728848",
  "binders": {"B1": {"name": "BDCA-2 (Homo sapiens), Q8WTT0 (protein)", "chain": "MVPEEEPQDREKGLWWFQLKVWSMAVVSILLLSVCFTVSSVVPHNFMYSKTVKRLSKLREYQQYHPSLTCVMEGKDIEDWSCCPTPWTSFQSSCYFISTGMQSWTKSQKNCSVMGADLVVINTREEQDFIIQNLKRNSSYFLGLSDPGGRRHWQWVDQTPYNENVTFWHSGEPNNLDERCAIINFRSSEEWGWNDIHCHVPQKSICKMKKIYI"}},
  "assay_in_all_cases": "glycan array binding signal (z-score within array); higher = stronger binding",
  "details_in_all_cases": "glycan notation: IUPAC condensed, linker removed",
  "key": {"[1]": {"target": "Gal(b1-3)GlcNAc(a1-3)Gal(b1-4)GlcNAc", "in_short": "(§1)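 Glycan array data were curated from 3228 arrays in the Consortium for Functional Glycomics database and kept only where the protein sequence was available. Glycan names were converted to IUPAC-condensed notation, and columns mapping to the same glycan were averaged. The binding signal is a within-array Z-score, averaged across arrays of the same protein sequence at different concentrations or buffers and across linkers. Negative Z-scores can be read as non-binding.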"}, "[2]": {"target": "Gal(b1-3)GlcNAc(a1-6)Gal(b1-4)GlcNAc", "in_short": "as §1"}, "[3]": {"target": "Gal(b1-3)GlcNAc(b1-2)Man", "in_short": "as §1"}, "[4]": {"target": "Gal(b1-3)GlcNAc(b1-2)Man(a1-3)[Gal(b1-3)GlcNAc(b1-2)Man(a1-6)]Man(b1-4)GlcNAc(b1-4)GlcNAc", "in_short": "as §1"}, "[5]": {"target": "Gal(b1-3)GlcNAc(b1-2)Man(a1-3)[Gal(b1-3)GlcNAc(b1-2)Man(a1-6)]Man(b1-4)GlcNAc(b1-4)[Fuc(a1-6)]GlcNAc", "in_short": "as §1"}, "[6]": {"target": "Gal(b1-3)GlcNAc(b1-2)Man(a1-3)[GlcNAc(b1-4)][Gal(b1-3)GlcNAc(b1-2)Man(a1-6)]Man(b1-4)GlcNAc(b1-4)GlcNAc", "in_short": "as §1"}, "[7]": {"target": "Gal(b1-3)GlcNAc(b1-2)[Gal(b1-3)GlcNAc(b1-6)]Man(a1-6)[Gal(b1-3)GlcNAc(b1-2)Man(a1-3)]Man(b1-4)GlcNAc(b1-4)GlcNAc", "in_short": "as §1"}, "[8]": {"target": "Gal(b1-3)GlcNAc(b1-3)Gal(b1-3)GlcNAc", "in_short": "as §1"}, "[9]": {"target": "Gal(b1-3)GlcNAc(b1-3)Gal(b1-4)Glc", "in_short": "as §1"}, "[10]": {"target": "Gal(b1-3)GlcNAc(b1-3)Gal(b1-4)GlcNAc", "in_short": "as §1"}, "[11]": {"target": "Gal(b1-3)GlcNAc(b1-3)Gal(b1-4)GlcNAc(b1-2)Man(a1-3)[Gal(b1-3)GlcNAc(b1-3)Gal(b1-4)GlcNAc(b1-2)Man(a1-6)]Man(b1-4)GlcNAc(b1-4)GlcNAc", "in_short": "as §1"}, "[12]": {"target": "Gal(b1-3)GlcNAc(b1-3)Gal(b1-4)GlcNAc(b1-2)[Gal(b1-3)GlcNAc(b1-3)Gal(b1-4)GlcNAc(b1-6)]Man(a1-6)[Gal(b1-3)GlcNAc(b1-3)Gal(b1-4)GlcNAc(b1-2)Man(a1-3)]Man(b1-4)GlcNAc(b1-4)[Fuc(a1-6)]GlcNAc", "in_short": "as §1"}, "[13]": {"target": "Gal(b1-3)GlcNAc(b1-3)Gal(b1-4)GlcNAc(b1-3)Gal(b1-4)GlcNAc(b1-2)[Gal(b1-3)GlcNAc(b1-3)Gal(b1-4)GlcNAc(b1-3)Gal(b1-4)GlcNAc(b1-6)]Man(a1-6)[Gal(b1-3)GlcNAc(b1-3)Gal(b1-4)GlcNAc(b1-3)Gal(b1-4)GlcNAc(b1-2)Man(a1-3)]Man(b1-4)GlcNAc(b1-4)[Fuc(a1-6)]GlcNAc", "in_short": "as §1"}, "[14]": {"target": "Gal(b1-3)GlcNAc(b1-3)Gal(b1-4)GlcNAc(b1-6)[Gal(b1-3)GlcNAc(b1-3)]Gal(b1-4)Glc", "in_short": "as §1"}, "[15]": {"target": "Gal(b1-3)GlcNAc(b1-3)Gal(b1-4)[Fuc(a1-3)]GlcNAc", "in_short": "as §1"}, "[16]": {"target": "Gal(b1-3)GlcNAc(b1-3)Gal(b1-4)[Fuc(a1-3)]GlcNAc(b1-6)[Gal(b1-3)GlcNAc(b1-3)]Gal(b1-4)Glc", "in_short": "as §1"}, "[17]": {"target": "Gal(b1-3)GlcNAc(b1-3)GalNAc", "in_short": "as §1"}, "[18]": {"target": "Gal(b1-3)GlcNAc(b1-6)Gal(b1-4)GlcNAc", "in_short": "as §1"}, "[19]": {"target": "Gal(b1-3)GlcNAc(b1-6)GalNAc", "in_short": "as §1"}, "[20]": {"target": "Gal(b1-3)GlcNAc(b1-6)[Gal(b1-3)]GalNAc", "in_short": "as §1"}, "[21]": {"target": "Gal(b1-3)GlcNAc6S", "in_short": "as §1"}, "[22]": {"target": "Gal(b1-3)[Fuc(a1-4)]GlcNAc", "in_short": "as §1"}, "[23]": {"target": "Gal(b1-3)[Fuc(a1-4)]GlcNAc(b1-2)Man", "in_short": "as §1"}, "[24]": {"target": "Gal(b1-3)[Fuc(a1-4)]GlcNAc(b1-2)Man(a1-3)[Gal(b1-3)[Fuc(a1-4)]GlcNAc(b1-2)Man(a1-6)]Man(b1-4)GlcNAc(b1-4)[Fuc(a1-6)]GlcNAc", "in_short": "as §1"}, "[25]": {"target": "Gal(b1-3)[Fuc(a1-4)]GlcNAc(b1-3)Gal(b1-3)[Fuc(a1-4)]GlcNAc", "in_short": "as §1"}, "[26]": {"target": "Gal(b1-3)[Fuc(a1-4)]GlcNAc(b1-3)Gal(b1-4)GlcNAc", "in_short": "as §1"}, "[27]": {"target": "Gal(b1-3)[Fuc(a1-4)]GlcNAc(b1-3)Gal(b1-4)[Fuc(a1-3)]GlcNAc", "in_short": "as §1"}, "[28]": {"target": "Gal(b1-3)[Fuc(a1-4)]GlcNAc(b1-6)GalNAc", "in_short": "as §1"}, "[29]": {"target": "Gal(b1-3)[GlcNAc(b1-6)]GalNAc", "in_short": "as §1"}, "[30]": {"target": "Gal(b1-3)[Neu5Ac(a2-6)]GalNAc", "in_short": "as §1"}, "[31]": {"target": "Gal(b1-3)[Neu5Ac(a2-6)]GlcNAc(b1-4)Gal(b1-4)Glc", "in_short": "as §1"}, "[32]": {"target": "Gal(b1-3)[Neu5Ac(a2-6)]GlcNAc(b1-6)Gal(b1-4)Glc", "in_short": "as §1"}, "[33]": {"target": "Gal(b1-3)[Neu5Ac(b2-6)]GalNAc", "in_short": "as §1"}, "[34]": {"target": "Gal(b1-4)Gal", "in_short": "as §1"}, "[35]": {"target": "Gal(b1-4)GalNAc(a1-3)[Fuc(a1-2)]Gal(b1-4)GlcNAc", "in_short": "as §1"}, "[36]": {"target": "Gal(b1-4)GalNAc(b1-3)[Fuc(a1-2)]Gal(b1-4)GlcNAc", "in_short": "as §1"}, "[37]": {"target": "Gal(b1-4)Glc", "in_short": "as §1"}, "[38]": {"target": "Gal(b1-4)Glc6S", "in_short": "as §1"}, "[39]": {"target": "Gal(b1-4)GlcNAc", "in_short": "as §1"}, "[40]": {"target": "Gal(b1-4)GlcNAc(a1-6)Gal(b1-4)GlcNAc", "in_short": "as §1"}, "[41]": {"target": "Gal(b1-4)GlcNAc(b1-2)Man", "in_short": "as §1"}, "[42]": {"target": "Gal(b1-4)GlcNAc(b1-2)Man(a1-3)Man(b1-4)GlcNAc(b1-4)GlcNAc", "in_short": "as §1"}, "[43]": {"target": "Gal(b1-4)GlcNAc(b1-2)Man(a1-3)[Gal(b1-4)GlcNAc(b1-2)Man(a1-6)]Man(b1-4)GlcNAc(b1-4)GlcNAc", "in_short": "as §1"}, "[44]": {"target": "Gal(b1-4)GlcNAc(b1-2)Man(a1-3)[Gal(b1-4)GlcNAc(b1-2)Man(a1-6)]Man(b1-4)GlcNAc(b1-4)[Fuc(a1-6)]GlcNAc", "in_short": "as §1"}, "[45]": {"target": "Gal(b1-4)GlcNAc(b1-2)Man(a1-3)[Gal(b1-4)GlcNAc(b1-2)Man(a1-6)][Gal(b1-4)GlcNAc(b1-4)]Man(b1-4)GlcNAc(b1-4)[Fuc(a1-6)]GlcNAc", "in_short": "as §1"}},
  "note": "The other results are listed elsewhere or left out.",
  "data": [
    {"binder": "B1", "values": [
      {"measurement": "glycan array binding signal (z-score)", "setting": "[1]", "result": -0.173},
      {"measurement": "glycan array binding signal (z-score)", "setting": "[2]", "result": -0.135},
      {"measurement": "glycan array binding signal (z-score)", "setting": "[3]", "result": 0.157},
      {"measurement": "glycan array binding signal (z-score)", "setting": "[4]", "result": 7.94},
      {"measurement": "glycan array binding signal (z-score)", "setting": "[5]", "result": 1.26},
      {"measurement": "glycan array binding signal (z-score)", "setting": "[6]", "result": 0.569},
      {"measurement": "glycan array binding signal (z-score)", "setting": "[7]", "result": 1.74},
      {"measurement": "glycan array binding signal (z-score)", "setting": "[8]", "result": -0.16},
      {"measurement": "glycan array binding signal (z-score)", "setting": "[9]", "result": 0.601},
      {"measurement": "glycan array binding signal (z-score)", "setting": "[10]", "result": 0.608},
      {"measurement": "glycan array binding signal (z-score)", "setting": "[11]", "result": -0.163},
      {"measurement": "glycan array binding signal (z-score)", "setting": "[12]", "result": -0.113},
      {"measurement": "glycan array binding signal (z-score)", "setting": "[13]", "result": -0.117},
      {"measurement": "glycan array binding signal (z-score)", "setting": "[14]", "result": -0.164},
      {"measurement": "glycan array binding signal (z-score)", "setting": "[15]", "result": -0.159},
      {"measurement": "glycan array binding signal (z-score)", "setting": "[16]", "result": -0.17},
      {"measurement": "glycan array binding signal (z-score)", "setting": "[17]", "result": -0.154},
      {"measurement": "glycan array binding signal (z-score)", "setting": "[18]", "result": -0.173},
      {"measurement": "glycan array binding signal (z-score)", "setting": "[19]", "result": -0.172},
      {"measurement": "glycan array binding signal (z-score)", "setting": "[20]", "result": -0.154},
      {"measurement": "glycan array binding signal (z-score)", "setting": "[21]", "result": -0.162},
      {"measurement": "glycan array binding signal (z-score)", "setting": "[22]", "result": -0.188},
      {"measurement": "glycan array binding signal (z-score)", "setting": "[23]", "result": -0.077},
      {"measurement": "glycan array binding signal (z-score)", "setting": "[24]", "result": -0.013},
      {"measurement": "glycan array binding signal (z-score)", "setting": "[25]", "result": -0.167},
      {"measurement": "glycan array binding signal (z-score)", "setting": "[26]", "result": 0.763},
      {"measurement": "glycan array binding signal (z-score)", "setting": "[27]", "result": -0.206},
      {"measurement": "glycan array binding signal (z-score)", "setting": "[28]", "result": -0.149},
      {"measurement": "glycan array binding signal (z-score)", "setting": "[29]", "result": -0.09},
      {"measurement": "glycan array binding signal (z-score)", "setting": "[30]", "result": -0.137},
      {"measurement": "glycan array binding signal (z-score)", "setting": "[31]", "result": -0.125},
      {"measurement": "glycan array binding signal (z-score)", "setting": "[32]", "result": -0.106},
      {"measurement": "glycan array binding signal (z-score)", "setting": "[33]", "result": -0.135},
      {"measurement": "glycan array binding signal (z-score)", "setting": "[34]", "result": -0.157},
      {"measurement": "glycan array binding signal (z-score)", "setting": "[35]", "result": 0.75},
      {"measurement": "glycan array binding signal (z-score)", "setting": "[36]", "result": 2.85},
      {"measurement": "glycan array binding signal (z-score)", "setting": "[37]", "result": -0.117},
      {"measurement": "glycan array binding signal (z-score)", "setting": "[38]", "result": -0.144},
      {"measurement": "glycan array binding signal (z-score)", "setting": "[39]", "result": -0.266},
      {"measurement": "glycan array binding signal (z-score)", "setting": "[40]", "result": -0.178},
      {"measurement": "glycan array binding signal (z-score)", "setting": "[41]", "result": -0.141},
      {"measurement": "glycan array binding signal (z-score)", "setting": "[42]", "result": 5.76},
      {"measurement": "glycan array binding signal (z-score)", "setting": "[43]", "result": 8.18},
      {"measurement": "glycan array binding signal (z-score)", "setting": "[44]", "result": 3.64},
      {"measurement": "glycan array binding signal (z-score)", "setting": "[45]", "result": 0.157}
    ]}
  ]
}
